# Assay results reported in the supplement of paper PMC10600219.
# Structures can show the parent of a compound that is named as a salt. In all, about 2,800 compounds were measured (“cell viability relative to vehicle”: median about 1.1, lowest 2% from about 0.19 on). The list shows a part of the results.
# Test system: NCI-H2228 parental
# Experiment: cell viability relative to vehicle (fraction of vehicle); NCI-H2228 is an ALK-positive lung cancer line and DTP means drug-tolerant persister; higher = less growth inhibition
# Conditions: 100 nM; treatment time 6 days
# Procedure, shortened: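 The 3114-agent TargetMol anti-cancer compound library was tested at 100 nM for 6 days on parental NCI-H2228 cells and on persister cells derived with 1000 nM of a targeted drug for 13 days. ATP readout by the CellTiter-Glo 3D Cell Viability Assay gave cell viability relative to DMSO vehicle-treated cells.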
row,Compound,cell viability
1,Cc1cccc(-c2[nH]ncc2-c2ccc3ncccc3n2)n1,0.992
2,O=C(NCCCNc1nc(Nc2cccc(NC(=O)N3CCCC3)c2)ncc1I)c1cccs1,1.07
3,C=C(C)[C@@H]1CC[C@]2(C)CC[C@]3(C)[C@H](CC[C@@H]4[C@@]5(C)CC[C@H](O)C(C)(C)[C@@H]5CC[C@]43C)[C@@H]12 [Lupeol],1.15
4,O=C(O)c1cc(NCc2cc(O)ccc2O)ccc1O [lavendustin C],1.07
5,C=C1CCC[C@]2(C)C[C@@H]3OC(=O)C(C)=C3C[C@@H]12 [Atractylenolide II],0.925
6,CCCCCCCCNC(C)C(O)c1ccc(SC(C)C)cc1 (centres undefined) [Suloctidil],1.08
7,COc1cc2c(cc1OC)[C@@H]1C(=O)c3ccc4c(c3O[C@@H]1CO2)C=CC(C)(C)O4 [Deguelin],0.928
8,S=c1[nH]cnc2nc[nH]c12 [6-Mercaptopurine monohydrate],0.405
9,S=c1[nH]cnc2nc[nH]c12 [Mercaptopurine],0.873
10,NS(=O)(=O)c1ccc(NC(=O)Nc2ccc(F)cc2)cc1,1.06
11,CN1CCC(CNc2ccc3ncc(-c4cccc(OC(F)(F)F)c4)n3n2)CC1 [SGI-1776 free base],0.994
12,Cc1nn(C)cc1-c1nc2c(N3CCN(Cc4ccc(Cl)cc4)CC3)c(Cl)cnc2[nH]1,0.927
13,C[C@H](NC(=O)CCc1nc2ccccc2c(=O)[nH]1)c1ccccc1,1.03
14,NCC(=O)CCC(=O)O [5-Aminolevulinic acid hydrochloride],0.98
15,COc1ccc(CNc2nc(N(CCO)CCO)nc3c2ncn3C(C)C)cc1,1.03
16,Cc1ccc(Sc2ccccc2N2CCNCC2)c(C)c1 [Vortioxetine],1.15
17,Cc1ccc(C)c(OCCCC(C)(C)C(=O)O)c1 [Gemfibrozil],1.26
18,CC1(C)CC[C@]2(C(=O)O)CC[C@]3(C)[C@H](C(=O)C=C4[C@@]5(C)C=C(C#N)C(=O)C(C)(C)[C@@H]5CC[C@]43C)[C@@H]2C1 [Bardoxolone],1.02
19,O=C(O)/C=C/C(=O)O [Fumaric acid],1.24
20,COc1cc2c(cc1OC)[C@@H]1Cc3ccc(OC)c(OC)c3CN1CC2 [Rotundine],1.11
21,O=C(CCCN1CCC(O)(c2ccc(Cl)cc2)CC1)c1ccc(F)cc1 [Haloperidol],1.19
22,CC1(C)[C@@H](O)CC[C@]2(C)[C@H]3C(=O)C=C4[C@@H]5C[C@@](C)(C(=O)O)CC[C@]5(C)CC[C@@]4(C)[C@]3(C)CC[C@@H]12 [Enoxolone],1.15
23,CC1(C)CC(=O)c2c(C(F)(F)F)nn(-c3ccc(C(N)=O)c(N[C@H]4CC[C@H](OC(=O)CN)CC4)c3)c2C1,0.236
24,C[C@H]1COC2(CCN(c3nc(=O)c4cc(C(F)(F)F)cc([N+](=O)[O-])c4s3)CC2)O1 (racemic) [BTZ043 Racemate],1.07
25,Cc1ccc(S(=O)(=O)N2CCCC2c2ccc(F)cc2)cc1 (centres undefined),0.97
26,O=C1CN(CCN2CC(=O)N(CN3CCOCC3)C(=O)C2)CC(=O)N1CN1CCOCC1 [Bimolane],1.11
27,O=C(NCc1cccc(O)c1)Nc1nc(-c2ccncc2)cs1,1.06

row,Compound,cell viability
1,COc1cc(C(=O)NC2CCN(C)CC2)ccc1Nc1ncc2c(n1)N(C1CCCC1)CC(F)(F)C(=O)N2C,0.171
2,N#CCCCSC(=N)N [Kevetrin hydrochloride],1
3,COc1c(C)c2c(c(O)c1C/C=C(\C)CCC(=O)OCCN1CCOCC1)C(=O)OC2 [Mycophenolate Mofetil],1.1
4,CN1C(C(=O)Nc2ccccn2)=C(O)c2ccccc2S1(=O)=O [Piroxicam],0.952
5,CN1C(N)=N[C@](C)(c2cc(NC(=O)c3ccc(F)cn3)ccc2F)CS1(=O)=O [Verubecestat],1.12
6,NCCS [2-Aminoethanethiol],1.09
7,COc1ccc(CCc2nc3cc(-c4c(C)noc4C)ccc3n2C[C@H](C)N2CCOCC2)cc1Cl,1.08
8,Nc1nc(=O)c2c([nH]1)NC[C@H](CNc1ccc(C(=O)N[C@@H](CCC(=O)O)C(=O)O)cc1)N2C=O [Calcium Levofolinate],1.15
9,CNCc1ccc(-c2[nH]c3cc(F)cc4c3c2CCNC4=O)cc1 [Rucaparib Phosphate],1
10,CCNC(=O)c1noc(-c2cc(C(C)C)c(O)cc2O)c1-c1ccc(CN2CCOCC2)cc1 [Luminespib],0.0552
11,Cc1cnc(-c2cnc(NCCNc3ccc(C#N)cn3)nc2-c2ccc(Cl)cc2Cl)[nH]1,1.09
12,CC(=O)OC(C)C(C)C(=O)OCC12C3CC(C)(C)[C@H](O[C@@H]1C[C@]1(C)C3=CCC3C4(C)CCC(O[C@@H]5O[C@H](C(=O)O)[C@@H](O[C@H]6O[C@H](CO)[C@@H](O)[C@H](O)[C@H]6O)[C@H](O)[C@H]5O[C@@H]5OC[C@@H](O)[C@H](O)[C@H]5O)[C@](C)(CO)C4CCC31C)C2O (some centres undefined) [Sodium Aescinate],1.1
13,COc1ccc2c(c1)C(=O)N(CCc1ccc(S(=O)(=O)NC(=O)NC3CCCCC3)cc1)C(=O)C2(C)C [Gliquidone],1.13
14,C=CCc1ccc(O)c(-c2cc(CC=C)ccc2O)c1 [Magnolol],1.02
15,CN(C)CCN(Cc1ccc(Cl)cc1)c1ccccn1 [Chloropyramine hydrochloride],1.15
16,NS(=O)(=O)Cc1noc2ccccc12 [Zonisamide],0.935
17,CC(=O)c1cc([N+](=O)[O-])c(Sc2ccc(F)cc2F)s1,0.963
18,Cc1nn2c([nH]c(=O)c3cccnc32)c1C#N,1.07
19,Cc1cn([C@H]2C[C@H](N=[N+]=[N-])[C@@H](CO)O2)c(=O)[nH]c1=O [Zidovudine],1.24
20,Cc1ccc2nc(NCCN)c3ncc(C)n3c2c1,1.06
21,NCCC(O)(P(=O)(O)O)P(=O)(O)O [Pamidronate disodium salt],1.08
22,CC(C[N+](C)(C)C)OC(N)=O (centres undefined) [Bethanechol chloride],1.21
23,CCCc1nc2c(C)cc(-c3nc4ccccc4n3C)cc2n1Cc1ccc(-c2ccccc2C(=O)O)cc1 [Telmisartan],1.12
24,CC(C)(C)C1CCc2c(sc(NC(=O)c3ccco3)c2C(=O)O)C1 (centres undefined),1.01
25,COCCCOc1cc(C[C@@H](C[C@H](N)[C@@H](O)C[C@H](C(=O)NCC(C)(C)C(N)=O)C(C)C)C(C)C)ccc1OC [Aliskiren hemifumarate],1.24
26,CC1=CC(=O)c2ccccc2C1=O [Menadione],1.17
27,CC(=O)/N=c1/sc(S(N)(=O)=O)nn1C [Methazolamide],0.955

row,Compound,cell viability
1,Cc1ccc(C(=O)N(CCCN)[C@@H](c2nc3cc(Cl)ccc3c(=O)n2Cc2ccccc2)C(C)C)cc1 [Ispinesib],0.28
2,CC(=O)Oc1cc(C)c(OC(C)=O)c2ccccc12 [Menadiol Diacetate],1.18
3,COc1cc2ncnc(Nc3ccc(F)c(Cl)c3)c2cc1NC(=O)/C=C/CN1CCCCC1 [Dacomitinib],1.05
4,O=c1cc(N2CCOCC2)oc2c(-c3ccc4c(c3)OCCO4)csc12,1.14
5,CCCCC1C(=O)N(c2ccccc2)N(c2ccccc2)C1=O [Phenylbutazone],1.34
6,C=C1CCC[C@]2(C)C[C@]3(O)OC(=O)C(C)=C3C[C@@H]12 [Atractylenolide III],1.1
7,O=C(Nc1ccc2[nH]nc(-c3ccncc3)c2c1)[C@@H]1CCN(CC(=O)N2CCN(c3ccc(-c4ncccn4)cc3)CC2)C1,1.06
8,C=CC(=O)Nc1cccc(Oc2nc(Nc3ccc(N4CCN(C)CC4)c(F)c3)nc3[nH]ccc23)c1 [Avitinib],0.935
9,CNCC[C@@H](Oc1ccccc1C)c1ccccc1 [Atomoxetine hydrochloride],1.12
10,CC(C)(C)c1cc(NC(=O)Nc2ccc(Oc3ccnc4[nH]c(=O)cnc34)cc2F)n(-c2ccccc2)n1,1.15
11,CC(C)(O)CNc1nc(Nc2ccnc(C(F)(F)F)c2)nc(-c2cccc(C(F)(F)F)n2)n1 [Enasidenib],0.984
12,Cc1c(CN2CCN(S(C)(=O)=O)CC2)sc2c(N3CCOCC3)nc(-c3cnc(N)nc3)nc12,0.664
13,CC/C=C\CC1C(=O)CCC1CC(=O)OC (racemic) [(±)-Methyl Jasmonate],1.13
14,CC(Cc1ccc(O)c(O)c1)C(C)Cc1ccc(O)c(O)c1 (centres undefined) [Nordihydroguaiaretic acid],1.12
15,Nc1ncc(-c2ccnc(Nc3ccncc3)n2)c(CC2CC2)n1,1.09
16,C[C@@H](Oc1cc(-c2cnn(C3CCNCC3)c2)cnc1N)c1c(Cl)ccc(F)c1Cl [Crizotinib],0.777
17,N[C@@H](CCNCc1ccc(Cl)cc1)C(=O)N1CCCCC1,1.14
18,CCNC(=O)Nc1ccc(-c2nc(N3CCOC[C@@H]3C)c3c(n2)C(C)(C)S(=O)(=O)C3)cc1,0.547
19,Cc1cc(Nc2ncc(Cl)c(Nc3ccccc3S(=O)(=O)C(C)C)n2)c(OC(C)C)cc1C1CCNCC1,0.555
20,C/C(O)=C(\C#N)C(=O)Nc1ccc(C(F)(F)F)cc1 [Teriflunomide],1.14
21,Cn1cc(/C=C/C(=O)c2cccc(F)c2)cc1/C=C/C(=O)NO,1.05
22,Cc1nc(N(C)C(=O)Cc2ccc(-c3ccccn3)cc2)sc1S(N)(=O)=O [Pritelivir],0.87
23,NS(=O)(=O)Oc1ccc2c3c(c(=O)oc2c1)CCCCC3 [Irosustat],1.04
24,O=P(O)(O)O[C@H]1[C@H](OP(=O)(O)O)[C@@H](OP(=O)(O)O)[C@H](OP(=O)(O)O)[C@@H](OP(=O)(O)O)[C@H]1OP(=O)(O)O [Phytic acid],1.19
25,COc1ccc(CCc2cc(OC)c(OC)c(OC)c2)cc1O [Erianin],0.335
